Measurements published in the supplement of paper PMC3334620.
Over roughly 33,000 sequences, “E-score (-0.5 to 0.5)” has its median near -0.016; the highest 2% begin near 0.31. The list shows a part of the results.

These sequences were tested against Cst6 (UniProt P40535) (assay: PBM E-score (8-mer binding enrichment) (E-score (-0.5 to 0.5)); higher = stronger / more preferred TF binding; most listed sequences are background and not binding sites). Conditions: protein concentration: 200 nM; construct: GST-DNA-binding domain.
Method in brief: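 Yeast transcription factors carrying a GST tag, as full-length proteins or DNA-binding domains, were produced by PURExpress in vitro transcription/translation. About 100-200 nM protein was applied to universal all-10-mer Agilent arrays, double-stranded by primer extension on fresh or once-stripped slides. Bound protein was detected with fluorescent anti-GST, and scans were normalised with masliner. The Universal PBM Analysis Suite gave each ungapped eight-base word, pooled with its reverse complement, an E-score, a modified Wilcoxon-Mann-Whitney statistic.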

Sequence | PBM E-score
CCTCAAAC | -0.11
CCACCCCG | -0.12
ATTCTAAG | 0.118
AATGTCTC | -0.0571
AACAATGA | 0.269
CCCTCCCC | -0.128
GAAGAGGA | -0.285
ACTCTTCT | -0.112
CTAGCTCC | -0.168
AGGTCCGA | -0.0447
AGGCTGAC | 0.021
CCATAATC | 0.0864
ATGCCGTG | 0.283
AAGCTAGC | -0.185
ATGAACAG | -0.0447
CAGGCGTC | -0.00038
ACTGACAG | -0.00331
AGAGGAAC | -0.167
CTCCTCCA | -0.0278
ATGAATAG | 0.0516
AGCGTTAG | -0.0124
CCCTTAGG | -0.236
GTGAAAAA | 0.166
CAATCGAC | -0.00342
ACGAGAGT | -0.0164

Sequence | PBM E-score
GTTATTTA | 0.16
AGCTTAGC | -0.128
AAAGCTGA | 0.0262
AGGTTTCC | -0.146
GCCCGTAA | -0.0223
AGATCTAA | -0.00708
AGAGTGCG | 0.0193
GAAGTTGA | 0.0113
AAGGGTAT | 0.0744
CGACCGAA | -0.118
CAGAGAAG | -0.0752
GGAATAGA | 0.141
CCATAGAG | -0.189
GCCGTTCA | 0.119
GAGACCTA | -0.159
ACCACAAT | -0.0406
GAACGCGC | 0.042
GCGACGAC | -0.217
AGAGTGGA | -0.102
CACCGATC | -0.0918
CAATGCCC | -0.136
AGGTGAAA | 0.174
ACTCACAA | -0.0198
AATTCATG | 0.232
CCACAAGG | -0.141

Sequence | PBM E-score
GCGGATCC | -0.244
CCACTAGC | -0.0858
ACACAGAT | 0.0983
CCCAGCGA | -0.148
GGCCAACA | -0.132
AGACGGTG | -0.121
CAGCAATG | -0.0536
CAAGACAG | 0.00208
ACGAGTTC | 0.0943
CTACCTTC | 0.00911
AACGCCAC | 0.0249
CATGATTA | 0.3
CAAAGACG | -0.00769
AAAGCAGC | -0.00842
CTCATCGA | -0.0055
ACTACCCG | -0.157
GCCGCCGC | 0.205
ATGCCGAC | 0.00357
ATGGGGAC | -0.253
ACCTCTCA | -0.0889
CTACTAAC | 0.104
ACAAACTG | -0.133
AGGCGAGG | -0.149
CGGGAAGA | 0.0622
ATGTTATC | 0.0807

Sequence | PBM E-score
AGTGCTGG | -0.12
GCCAGACA | -0.136
GGTGTCAC | 0.137
CTACTGAC | -0.0156
ATACCGGG | -0.224
AGAACTAT | 0.203
ACCCGAGC | -0.164
TGTATCAA | 0.196
ATTCTCTG | -0.0797
GAGCTATA | -0.0375
AGTTATCA | 0.0276
CGCCTCCG | -0.189
AGACACCA | -0.0187
ACCCCGCA | -0.112
CCTGTTGA | -0.0446
AGAGTACA | -0.177
AGTTGTAT | 0.188
ATTACGGG | 0.00617
GAGCGTTA | 0.0716
ATTGGCAC | -0.0501
GATACGGA | 0.111
CTACGGAC | -0.227
TAAGATCA | 0.165
GCAAGCCA | -0.273
GAATATGC | 0.0565

Sequence | PBM E-score
AGATCGCT | -0.198
ATTCAAAT | 0.172
CTCGCTAA | 0.0589
AGGCAAAT | 0.164
AAAAACAG | 0.034
TCGACCCA | -0.0691
ATGCATGC | 0.0469
AACGGAAC | 0.0866
AGCAATAA | 0.0413
GACTTGCA | 0.0878
GCAGATAA | -0.103
AATTATGA | 0.359
CCAAGTCG | -0.214
CGCCTAAG | -0.248
ATCGTGCG | 0.225
CGAACTGA | 0.024
CGCCACTA | -0.0104
CGGAGACG | -0.0191
TCCACAGA | 0.0321
GAACTCCA | 0.0679
CGAAGTCC | -0.311
ATATACGC | 0.0619
TGCCCGCA | -0.153
GCCGCTGA | -0.0198
AATGCTGA | 0.0858

Sequence | PBM E-score
GACCCTCA | -0.384
GTATAAGA | 0.0513
CCCACCTC | -0.263
GAGACAGC | -0.125
AGCTTACG | 0.132
AACCTGTA | 0.0426
GACCCCGC | -0.155
ACTATTTG | 0.11
AGTGGACG | 0.225
CCACCCTC | -0.00819
CCCAGGAA | -0.176
ATGCCGAA | 0.0887
GAAGACGA | 0.0435
ACGTTGCA | 0.111
ATTCGAAT | 0.095
CTTGGCTA | -0.0737
ACGTTCCA | -0.131
ACGCAATC | 0.206
CCTGGACG | -0.309
AACTAGGT | -0.0629
AGCAATTA | 0.0966
AACTGAGG | -0.0585
GGTGAACA | -0.212
AATGACTG | 0.141
CGAAGCCA | -0.0138

Sequence | PBM E-score
AGGTACAA | 0.00431
ATTCCGAC | -0.0105
AACCACAA | 0.0619
GCGCCTTA | 0.27
GTAACTAC | 0.218
AAATCTCT | 0.0922
CGACAGAC | -0.211
CGGAGGCA | 0.0288
CGCACGTC | 0.203
GAGCCGTA | 0.296
GCAATTCA | 0.11
CACCAATA | 0.0154
AGACTAAT | -0.103
ACCAGATA | 0.0754
CCCCACTC | -0.286
AGCTGGCG | -0.3
ACCTGCTC | 0.014
CATGTAAC | 0.014
TAGAGTGA | 0.0294
CTTAGGCA | -0.178
ACCGTCAC | 0.216
AAGAGGTA | -0.0826
GACATCTC | -0.147
CGTTGTAG | -0.0708
AACGCTTA | -0.0117

Sequence | PBM E-score
TATGCGAA | 0.0373
CGCTATTA | 0.0489
AGGTATCG | 0.0019
CTGGGGTC | -0.164
CAAAGGAA | 0.0384
CATTTGGG | -0.0143
AAGTCTAT | 0.00477
AAACTGGC | -0.094
ATCAGAAC | -0.0336
AGGGGGTA | -0.392
AGCTGGCA | -0.0922
CCTTGCGA | 0.00961
GGCACGTA | 0.119
AGTCGGAG | -0.287
GCAACGGC | 0.13
ATACGGGG | -0.107
CTTTCGAC | -0.0311
AGCCCTGG | -0.324
GGCCCTCA | -0.266
GCCACTAC | -0.117
ACACATTA | 0.126
ACGCATAA | 0.197
AATAGTAG | 0.124
AAAGTACG | 0.222
GTCATACA | 0.317

Sequence | PBM E-score
GTTTGATA | 0.0835
CGCAATTA | 0.18
ACAAAGCT | -0.0124
GCCTTCAA | -0.0837
ATATCGCC | 0.0585
AGTGCATG | 0.0373
AACACACT | 0.0793
CCTAGCGC | -0.12
CAACCGTC | -0.0729
ACTTTCAC | 0.133
ATTATACC | 0.115
ATATTGCA | 0.0649
TAGCCAAA | -0.012
TGACCCAA | 0.076
CTCTAGTC | -0.339
ATTACGTG | 0.46
CGCTTACG | 0.128
GGATCTAA | -0.0815
ACACTCCA | -0.0141
CTAACCCC | -0.359
GAGGGATA | -0.28
GGATCGTA | -0.0792
GTCGGCTA | -0.0184
CTATCAGC | 0.0792
CCATTGAA | 0.0753

Sequence | PBM E-score
ACACGTCA | 0.481
ATTCCTCA | 0.121
CCGAAACA | 0.0863
CTTGACTA | -0.115
AGCTGGAA | -0.2
AGTCTTTA | 0.0157
AGTATCAT | 0.2
CTCGCGAC | -0.0397
CCAAGACA | 0.0192
TACGGGCA | -0.128
ATAGATAG | 0.0604
ACGCACAT | 0.123
CTCATGAC | 0.335
AGACGGCG | 0.305
CCAAGCAG | -0.14
AGGCGTGG | -0.196
AACCAGTC | -0.163
AATCTGTG | 0.0752
AACTAGCG | -0.027
ATGAGTGA | 0.179
TCAACCCA | -0.0214
AGGTAAGC | -0.177
CAGAAGTA | 0.174
CTCGGCTC | -0.144
CATGGGGC | -0.0736

Sequence | PBM E-score
GCAGCCAA | -0.0419
CACTGAGG | 0.0321
CCAGAATC | 0.00028
GCTCTAAC | -0.047
ATTCTGAC | 0.181
ATGTGAAG | 0.135
TGTAGTAA | 0.14
AATTGAAA | 0.288
CATCATTC | 0.223
GATAATCA | 0.131
ATCGCGAA | -0.0403
AAGGCGAT | 0.123
CTGGGCGA | -0.216
CGAGTTGC | -0.0533
ATCGACCG | -0.102
GCCTCACA | 0.0735
CGAAATCA | 0.269
CGAGAAGA | 0.00966
ACTGTTAT | 0.17
AAGTAACT | 0.204
ATCTGCAT | 0.109
CCAGCCGG | -0.252
TCAGTGGA | -0.126
ACAAACGA | 0.252
AGTGATAG | 0.0241

Sequence | PBM E-score
TGCACGAA | 0.131
TCAAAAAA | 0.249
CGTTAACA | 0.0902
CGGGAGTC | -0.292
ATAACAGG | 0.171
AATAACGT | 0.264
AACACTTA | 0.118
CATGGATA | 0.0149
GCGAAAAC | -0.043
ACAGTCAG | 0.0634
ACAATTAA | 0.319
CACCAACC | 0.00459
CACACTGG | -0.336
AGAAGCGA | -0.0835
CAATCAGA | 0.00832
CGTGTCGC | 0.171
GAGCCATA | -0.0796
AAACCATA | 0.0889
AAGAGCAC | 0.0219
CCACGCGA | -0.182
AAGATGAG | -0.0416
GAGCTAGC | -0.118
CTCGCTAC | -0.279
GATAGTGA | 0.226
CCAAGGGG | -0.0413

Sequence | PBM E-score
GGTAGAGA | -0.0187
AAATCGCG | 0.00064
CAATACCA | 0.145
TCTACTAA | 0.188
TGCGCGAA | 0.0786
TCCATCGA | 0.00711
ATGGATCC | -0.149
GATTCGAC | 0.00076
ATGGGGTA | 0.0349
TCGGAAGA | -0.0183
GTACCAAA | 0.123
GGGTTGTA | -0.143
CGAGGACG | -0.269
AACCTCAA | 0.0495
CATATGCG | 0.0237
GGCTCTTA | -0.132
GTCCGGTA | -0.153
ATTTACCG | 0.196
CGTATTTC | 0.174
AGTTATTC | -0.0663
ATACAGTG | 0.00221
ACTTGGTA | 0.0789
CTGGGGAC | -0.341
GGGGTACC | -0.352
AGTGGTTA | 0.0401

Sequence | PBM E-score
AGGGTAGG | -0.213
CCATACGC | -0.0414
AAGCCTTA | -0.0547
GTCGTGCA | -0.0895
AAAGACTG | -0.116
GCGGCGAA | 0.174
TAGTAGAA | 0.0675
ATTGTAGA | 0.141
GGGCTTAA | -0.175
CAACTGGC | -0.0581
CCTCCACC | -0.344
GAGATCGA | 0.0615
GCTGACCC | -0.241
ACGATCAA | 0.135
ACGGAGCA | 0.0622
ACTTTACT | 0.0846
CTAGTAGC | -0.13
CCAGCGGC | 0.0699
GCCCAGAA | -0.282
